This note sets out measurements from PubChem BioAssay AID1347073 (National Center for Advancing Translational Sciences (NCATS), 2019).

Hit rate of the full screen: of about 45,000 compounds, about 200 (0.44%) were called active. About 7% were inconclusive and are not listed. Calls come from the whole dose curve; as a rule, active = well fitted activation curve with a large enough effect; inconclusive = small, poorly fitted or top-dose-only effect; inactive = no such curve, though single readings can be large or run the other way. Some of the results follow.
Potency is the fitted concentration of half-maximal effect.

This assay can be described thus: qHTS of TDP-43 Inhibitors: NCGC Sytravon Library Screen. For growth rescue (activation): 0% is about no effect. Note: nearly all actives have a fitted effect of over 55% in size. To be noted: yeast TDP-43 toxicity rescue, BacTiter-Glo growth, 24 h; series mostly up to 46.1 µM; growth rescue (activation): at the top concentration. The method in brief: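 TDP-43-expressing yeast, pregrown in raffinose, seeded at OD600 0.02 in galactose medium with compound for 24 hr at 30 deg C. Growth read by BacTiter-Glo luminescence, so rescue of toxicity appears as activation.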
On the technique in general: Quantitative high-throughput screening tests each substance at several concentrations.
`CCSc1nc2ccccc2n1CC(=O)O`: the “growth rescue (activation)” value is inactive: 6.74%.
Turning to `Cc1cc(C)c(C#N)c(SCC(=O)N2CCCCC2)n1`, the “growth rescue (activation)” value is inactive: 24.8%.
Take `O=C(COC(=O)c1cncc(Br)c1)Nc1nc(-c2ccc(F)cc2)cs1`: the “growth rescue (activation)” value is inactive: 34%.
On the same count and under the same terms, with `NC(=O)C1CCN(C(=O)CCSc2ccc(Cl)cc2)CC1` the figure was inactive: 5.2%; with `COc1ccc(NC2CC(=O)N(c3ccc(C(=O)O)cc3)C2=O)cc1` (configuration not stated), inactive: -23.8%; with `O=C(O)CCN1C(=O)S/C(=C\c2cccnc2)C1=O`, inactive: 12.4%.
The same measure, in the same setting: with `COc1ccc(-n2ncc3c2ncn2nc(Cc4ccccc4)nc32)cc1` the figure was inactive: 9.83%; with `N#C/C(=C(/O)c1ccc([N+](=O)[O-])cc1)c1nc2ccccc2[nH]1`, inactive: -7.95%.
On the same count and under the same terms, with `CCOc1ccc(CCNC(=O)COC(=O)Cn2cnc3ccccc3c2=O)cc1OCC` the figure was inactive: 11.5%; with `Cc1ccc(-c2noc(-c3nnn(-c4ccc(Br)cc4F)c3C)n2)cc1`, inactive: 14.1%.
Take `O=c1[nH]c(Nc2ccc3c(c2)OCCO3)nnc1Cc1ccc(Cl)cc1`: the “growth rescue (activation)” value was inactive: -27.1%.
The same measure, in the same setting: to `O=C(NNS(=O)(=O)c1ccc(F)cc1)C1CCCCC1` belongs inactive: 15.8%; to `O=C(Nc1ccc(F)cc1)Nc1nnc(-c2ccccc2)o1`, inactive: 13.2%.
On the same count and under the same terms, to `O=C(Cc1n[nH]c(=O)c2ccccc12)Nc1cccc(S(=O)(=O)N2CCCC2)c1` belongs inactive: 1.86%.
On the same count and under the same terms, to `COc1ccc(NC(=O)c2cncn2-c2ccccc2)cc1` belongs inactive: 12.1%; to `O=C(NNC(=O)c1cccc(C(F)(F)F)c1)c1ccc(-n2cnnn2)cc1`, inactive: 9.36%.
For the compound `CC1(C(=O)NS(=O)(=O)c2ccc(C#N)cc2)CCN1C(=O)C1(c2ccc(Cl)cc2)CC1` (configuration not stated), the “growth rescue (activation)” value was inactive: 1.1%.
Same read-out and setting: to `C=CCNC(=O)CN1CCC(c2nc3cc(C)c(C)cc3[nH]2)CC1` belongs inactive: 8.9%; to `COc1cc(OC)c(NC(=O)N2CCc3cc(S(=O)(=O)N4CCC(C)CC4)ccc32)cc1Cl`, inactive: 2.88%.
The same measure, in the same setting: to `CN(C)CCNC(=O)/C(=C/c1ccc(-c2cccc([N+](=O)[O-])c2)o1)NC(=O)c1ccccc1` belongs inactive: -5.39%; to `COc1ccc(C2Nc3ccccc3C(=O)N2Cc2ccccc2)cc1CN1CCOCC1` (configuration not stated), inactive: 8.61%.
The same measure, in the same setting: with `CC1(C(=O)NS(=O)(=O)c2cccs2)CCN1C(=O)CC1CCCC1` (configuration not stated) the figure was inactive: 2.48%.
`c1ccc2c(-c3ccc4nncn4c3)cncc2c1`: the “growth rescue (activation)” value was inactive: 8.36%.
On the same count and under the same terms, with `O=C(O)c1ccc(NC2=C(N3CCOCC3)C(=O)c3ccccc3C2=O)cc1` the figure was inactive: 24%; with `COc1ccc2c(c1)c(CC(=O)OC(C)C(=O)N(C)C)c(C)n2C(=O)c1ccc(Cl)cc1` (configuration not stated), inactive: 19.8%; with `O=C1Nc2c(c(=O)[nH]c(=O)n2-c2ccc(F)cc2)C1(NS(=O)(=O)c1ccccc1)C(F)(F)F` (configuration not stated), inactive: 0.18%.
Same read-out and setting: with `Cc1cccc(N(C(=O)CCC(=O)Nc2ccccn2)C(C(=O)NC(C)C)c2ccc(F)cc2)c1` (configuration not stated) the figure was inactive: -7.87%; with `CCc1nc2nc(C)c(NS(=O)(=O)c3ccc4c(c3)CCCC4)c(=O)n2[nH]1`, inactive: 14.5%.
`CCNc1nc(N)nc(Oc2ccc(C(=O)OC)cc2)n1`: the “growth rescue (activation)” value is inactive: 28.1%.
As to `Fc1ccc(/C=N/n2cnn(Cc3ccccc3Cl)c2=S)cc1`, the “growth rescue (activation)” value was inactive: 2.06%.
The same measure, in the same setting: to `COc1ccc2c(c1OC)C(=O)OC2C/C(=N\NC(N)=O)c1ccccc1` (configuration not stated) belongs inactive: 3.31%; to `C=CCOCCN(CCOCC=C)C1=NS(=O)(=O)c2ccccc21`, inactive: 2.35%.
On the same count and under the same terms, to `CC1CCCN(S(=O)(=O)c2ccc(NC(=O)C3CC(=O)N(C(C)(C)C)C3)cc2)C1` (configuration not stated) belongs inactive: 1.46%; to `CCC(=O)N1CCc2cc(Br)cc(S(=O)(=O)N3CCC(C(=O)NC(C)C)CC3)c21`, inactive: -1.98%; to `COC(=O)C1=C(O)/C(=C\c2ccc(CNS(=O)(=O)c3ccc(Cl)cc3)o2)N=C1C`, inactive: 8.22%.
On the same count and under the same terms, to `Cc1cc(NC(=O)COC(=O)C(C)Oc2ccc(Cl)cc2Cl)no1` (configuration not stated) belongs inactive: -6.96%; to `O=C(CCCOc1ccccc1)Nc1cccc(S(=O)(=O)N2CCOCC2)c1`, inactive: 12.3%.
For `CCOC(=O)c1c(-c2ccccc2)csc1NC(=O)CSc1nc(C)cc(C)n1`, the “growth rescue (activation)” value is inactive: 11.4%.
The same measure, in the same setting: with `CCCCNC(=O)C1(C)CCCCN1C(=O)c1cc(C)n(C(C)(C)C)n1` (configuration not stated) the figure was inactive: 8.37%; with `Cc1ccsc1CN(C(=O)COc1cccc(C)c1C)C1CCS(=O)(=O)C1` (configuration not stated), inactive: 7.37%.
In the case of `CS(=O)(=O)c1ccccc1C(=O)NC1CCCc2ccccc21` (configuration not stated), the “growth rescue (activation)” value was inactive: 20.6%.
Same read-out and setting: to `CN1c2ccccc2C(C)(C)C12C=Nc1c(cc(N3CCOCC3)c3ccccc13)O2` (configuration not stated) belongs inactive: 5.07%; to `COc1ccc(C(=S)N2CCOCC2)cc1OC(=O)c1ccc([N+](=O)[O-])cc1`, inactive: 21.6%.
As to `COc1ccc(-c2cc3nc(C)c(CCC(=O)N4CCN(c5ccccn5)CC4)c(C)n3n2)c(OC)c1`, the “growth rescue (activation)” value was inactive: -19.1%.
As for `COc1ccc(/C=C/C(=O)O)cc1Cl`, the Potency is active: 11.2 µM.
Consider `Cc1cc(C)c(N(CC(=O)NC(C)(C)C)C(=O)CNC(=O)c2cccs2)c(C)c1`, for which the “growth rescue (activation)” value is inactive: -5.18%.
Same read-out and setting: with `COc1ccc(/C=C/C(=O)Nc2ccc(-c3nnc4n3CCCCC4)cc2)c(OC)c1` the figure was inactive: -0.949%; with `CCCCc1c(O)nc(SCC(=O)N2CCCCCC2)[nH]c1=O`, inactive: -9.75%.
Same read-out and setting: to `CNc1oc(-c2cccc3ccccc23)nc1C#N` belongs inactive: 2.05%; to `Cn1c(=O)c(C(=O)CN2CCCCC2)c(N)n(Cc2ccccc2)c1=O`, inactive: 2.83%.
Turning to `COC(=O)Nc1ccc(S(=O)(=O)N2CCC(C(=O)N3CCCC(C)C3)CC2)cc1` (configuration not stated), the “growth rescue (activation)” value is inactive: 6.84%.
The same measure, in the same setting: to `Cc1nc(C(F)(F)F)ccc1C(=O)N1CCC1(C)C(=O)Nc1ccc2c(c1)OCO2` (configuration not stated) belongs inactive: 1.21%.
